# Measured values as given in PubChem BioAssay AID720542 (National Center for Advancing Translational Sciences (NCATS), 2013).
# The campaign covered roughly 360,000 compounds. About 740 (0.21%) were called active. This list was built around the results that the source calls inconclusive (neither active nor inactive); the mix of calls is not that of the screen. Calls come from the whole dose curve; as a rule, active = well fitted inhibition curve with a large enough effect; inconclusive = small, poorly fitted or top-dose-only effect; inactive = no such curve, though single readings can be large or run the other way. Potencies of inconclusive entries are left out as doubtful fits.
# Tested on: Plasmodium falciparum AMA1 (3D7) - RON2 peptide interaction
# Test: qHTS for Inhibitors of AMA1-RON; Towards Development of Antimalarial Drug Lead: Primary Screen; note: nearly all actives have a fitted effect of over 45% in size;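 for activity change, negative = inhibition: 0% = vehicle wells and -100% = peptide control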
# Details: AlphaScreen AMA1-biotinylated RON2 peptide binding; activity change, negative = inhibition: at 58.2 µM (top of the series) unless noted
# Procedure, shortened: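 AMA1 (3D7) with his tag at 25 nM final met compounds first, then biotinylated RON2 peptide at 25 nM; detection used donor plus acceptor beads, 10 µg/mL apiece, read by AlphaScreen after 30 min at room temperature.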
# Potency is the fitted concentration of half-maximal effect; tags give direction and shape of the fitted curve.
Structure (SMILES),Potency,"activity change, negative = inhibition"
COc1cccc(OC)c1OCCCCN1CCCCC1,"inconclusive [inhibitor, partial curve]",–
CCOC(=O)N/N=C/c1ccc(OC)c(O)c1,–,inactive: -13%
Cc1ccc(S(=O)(=O)N(C)/N=C/c2ccc(N(C)C)cc2)cc1,active: 25.1 µM,–
CC(=O)Nc1ccc(C(=O)CSc2nnc(Cn3nnc4ccccc43)n2C)cc1,"inconclusive [inhibitor, single point]",–
CC(C)C[C@H]1C(=O)N2CCC[C@H]2[C@]2(O)O[C@](NC(=O)C3C=C4c5cccc6[nH]c(Br)c(c56)C[C@H]4N(C)C3)(C(C)C)C(=O)N12 (some centres undefined),"inconclusive [inhibitor, partial curve, poor fit]",–
CCN1CCN(CC(=O)N2c3ccccc3CC2C)CC1 (centres undefined),"inconclusive [inhibitor, partial curve]",–
O=C(c1cccc(Cl)c1)N1CCN(c2ccc3c(c2)C2CC3CCN2C(=O)OCc2ccccc2)CC1 (centres undefined),"inconclusive [inhibitor, partial curve, poor fit]",–
Cc1ccc(/C(N)=N/OC(=O)Cc2cccc3ccccc23)cc1,"inconclusive [inhibitor, single point]",–
CCOC(=O)N1CCN(CC(c2ccccc2)c2ccccc2)CC1,"inconclusive [inhibitor, single point]",–
COc1cccc(N(CC(=O)N2CCCC2)S(C)(=O)=O)c1,–,inactive: -4.06%
COc1ccc(C2c3cc4c(cc3OC(N3CCOCC3)C2C)OCO4)c(OC)c1 (centres undefined),"inconclusive [inhibitor, single point]",–
CCn1c(SCC(=O)Nc2ccc3c(c2)OCCO3)nnc1-c1c[nH]c2ccccc12,–,inactive: -13%
Cn1c(-c2ccc(F)cc2)cnc1NCc1ccc(C#N)cc1,"inconclusive [inhibitor, single point]",–
Cc1ccc(Nc2nc(N)nc(CSc3nnnn3-c3ccccc3)n2)cc1,"inconclusive [inhibitor, partial curve]",–
COc1ccc2[nH]cc(CCn3ccc(O)c(C/C=C/c4ccccc4)c3=O)c2c1,"inconclusive [inhibitor, full curve, poor fit]",–
CCOc1ccc(NS(=O)(=O)c2cc(OCC(N)=O)c(C)cc2Cl)cc1,–,inactive: -10.5%
O=C(NCc1ccccc1F)c1ccc(S(=O)(=O)N2CCCC2)cc1,–,inactive: 4.22%
Cc1ccc([N+](=O)[O-])c(OCCN2CCCCCC2)c1,"inconclusive [inhibitor, single point]",–
CCOC(=O)C(=CNNc1cccc(Cl)c1)C(=O)OCC,"inconclusive [inhibitor, partial curve]",–
CC1Cc2ccccc2N1C(=O)CNc1ccccc1N1CCCCC1 (centres undefined),"inconclusive [inhibitor, single point]",–
CN(C)c1ccc(CSc2ccccc2)cc1,active: 8.91 µM,–
COc1ccccc1NC(=O)Nc1ccc2c(c1)OCCO2,"inconclusive [inhibitor, single point]",–

Structure (SMILES),Potency,"activity change, negative = inhibition"
O=C(O)CCc1ncc(C(F)(F)F)cc1Cl,"inconclusive [inhibitor, partial curve, poor fit]",–
C[C@H]1c2cccc(O)c2C(O)=C2C(=O)[C@]3(O)C(O)=C(C(N)=O)C(=O)[C@@H](N(C)C)[C@@H]3[C@@H](O)[C@@H]21,"inconclusive [inhibitor, full curve]",–
COc1cc(CC2COC(c3ccc(O)c(OC)c3)C2COC(C)=O)ccc1O (centres undefined),"inconclusive [inhibitor, partial curve]",–
COCC(C)NC(=O)c1nn(Cc2ccccc2)c(=O)c2ccccc12 (centres undefined),–,inactive: 4.85%
COc1ccccc1C(=O)/C=C/c1ccc(N2CCCCC2)c([N+](=O)[O-])c1,"inconclusive [inhibitor, partial curve]",–
O=S(=O)(O)c1cc(Cl)cc(N=Nc2ccc(O)cc2O)c1O,"inconclusive [inhibitor, full curve]",–
Cc1cccc(NC2=C(NC(=O)c3ccccc3)C(=O)c3ccccc3C2=O)c1,"inconclusive [inhibitor, partial curve]",–
COC(=O)c1c(N(S(C)(=O)=O)S(C)(=O)=O)sc2c1CCN(c1ncc(C(F)(F)F)cc1Cl)C2,"inconclusive [inhibitor, full curve, poor fit]",–
CN(C)c1ccc2c(c1)Sc1cc(N(C)C)ccc1N2C(=O)c1ccccc1,"inconclusive [inhibitor, full curve]",–
Cn1c(C(=O)N2CCN(c3cccc(C(F)(F)F)c3)CC2)cc2sccc21,"inconclusive [inhibitor, single point]",–
Cn1ccc2c(-c3cccnc3)cc3c(c21)C1CCC3C1 (centres undefined),"inconclusive [inhibitor, single point]",–
COc1ccc(Cl)cc1NC(=O)C(C)OC(=O)C1=NNC(=O)CC1 (centres undefined),–,inactive: 0%
CCOC(=O)CN1N=C(c2ccc(Cl)cc2)CCC1=O,–,inactive: -1.72%
O=C(NN1C(=O)/C(=C/c2ccc(O)c([N+](=O)[O-])c2)SC1=S)c1ccccc1Cl,"inconclusive [inhibitor, partial curve]",–
CCCc1ccc(C(O)c2ncc(-c3ccccc3F)[nH]2)cc1 (centres undefined),–,inactive: -6.72%
O=C(CNC(=O)Cc1ccccc1)NCc1cccs1,–,inactive: -6.06%
CCCSc1ccc(-c2nn(-c3ccccc3)cc2/C=C(/C#N)C(=O)N2CCOCC2)cc1,–,inactive: -32.4%
O=C(O)c1ncc(-c2ccccc2)cn1,"inconclusive [inhibitor, single point]",–
CN(C)/N=C/c1cc(Cl)cc([N+](=O)[O-])c1O,"inconclusive [inhibitor, partial curve]",–
CCC(=NCCCn1ccnc1)c1c(O)n(Cc2ccccc2)c(=O)[nH]c1=O,"inconclusive [inhibitor, partial curve]",–
Fc1ccc(NC(=S)Nc2ccc(F)c(Cl)c2)cc1Cl,–,inactive: 21.4%
CC[C@]12c3[nH]c4cc(-c5ccco5)ccc4c3CCN1C(=O)[C@@H](CC(=O)NCc1ccc(OC)c(OC)c1)C[C@@H]2C(=O)N1CCN(C(=O)c2ccco2)CC1,"inconclusive [inhibitor, single point]",–
